Structures are written as SMILES. About 120 (0.75%) of roughly 16,000 compounds were called active. Roughly 4% stayed inconclusive and do not appear here. Calls come from the whole dose curve; as a rule, active = well fitted inhibition curve with a large enough effect; inconclusive = small, poorly fitted or top-dose-only effect; inactive = no such curve, though single readings can be large or run the other way. This is one part of the list. *1 amine or outer side, *2 acyl side, *3 side chain or, on linkers, in order; H or OH if unused. Where a SMILES comes first, the peptide text is derived from it. Bridges are numbered along the chain shown (N, C = ends). Roman numbers before positions name the chains, in order. [ ]: non-standard residue; d: D form. Actinocin(9to1) = Cc1c2oc3c(C)ccc(C(=O)[*:1])c3nc-2c(C(=O)[*:2])c(N)c1=O; NMeV = CN[CH](C(=O)O)C(C)C; Sar = CNCC(=O)O

Sequence of UniProt O95398 (O95398 whole entry, looked up): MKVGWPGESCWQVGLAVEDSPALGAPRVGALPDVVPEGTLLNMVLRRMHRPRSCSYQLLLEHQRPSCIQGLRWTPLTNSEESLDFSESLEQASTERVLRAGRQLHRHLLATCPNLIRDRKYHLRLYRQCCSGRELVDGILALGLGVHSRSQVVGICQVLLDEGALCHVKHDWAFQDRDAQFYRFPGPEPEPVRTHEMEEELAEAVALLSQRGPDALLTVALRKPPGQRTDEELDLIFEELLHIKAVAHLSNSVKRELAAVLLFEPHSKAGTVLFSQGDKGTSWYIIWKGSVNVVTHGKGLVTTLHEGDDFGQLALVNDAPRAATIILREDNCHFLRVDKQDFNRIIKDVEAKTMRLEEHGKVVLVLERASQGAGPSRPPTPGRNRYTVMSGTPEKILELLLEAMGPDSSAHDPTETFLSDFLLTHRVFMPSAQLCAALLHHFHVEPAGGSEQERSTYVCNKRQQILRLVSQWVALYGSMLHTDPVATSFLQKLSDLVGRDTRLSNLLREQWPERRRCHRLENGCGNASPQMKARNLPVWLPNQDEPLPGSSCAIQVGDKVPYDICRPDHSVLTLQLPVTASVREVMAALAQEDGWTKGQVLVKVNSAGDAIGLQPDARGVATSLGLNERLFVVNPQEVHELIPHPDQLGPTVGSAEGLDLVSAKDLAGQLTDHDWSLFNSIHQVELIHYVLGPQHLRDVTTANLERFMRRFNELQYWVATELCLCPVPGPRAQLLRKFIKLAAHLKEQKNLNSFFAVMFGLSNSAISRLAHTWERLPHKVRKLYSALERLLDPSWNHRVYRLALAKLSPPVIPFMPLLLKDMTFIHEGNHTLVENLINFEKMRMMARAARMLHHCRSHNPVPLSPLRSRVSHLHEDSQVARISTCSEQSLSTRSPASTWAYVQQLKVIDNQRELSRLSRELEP

This assay deals with Rap guanine nucleotide exchange factor 3 (Homo sapiens) (UniProt O95398). The assay is described as follows: Validation qHTS for antagonist of cAMP-regulated guanine nucleotide exchange factor 3 (EPAC1).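 Note: plate controls were DMSO for no effect and ATA control for full effect; nearly all actives have a fitted effect of over 75% in size.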 As to conditions: EPAC1 Rap1B-BODIPY-GDP exchange, fluorescence; series mostly up to 150 µM; activity change, negative = inhibition: at the top concentration. The method in brief:
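EPAC1 (100 nM) mixed with 250 nM RAP1B-BODIPY-GDP and 50 uM GDP; compounds in concentration series, 5 min at room temperature. Fluorescence (ex 480/em 540 nm) read every 5 min for 30 min; normalized to ATA control and DMSO.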
(In qHTS, concentration-response curves come from the screen itself.)
Take `COCC(=O)Nc1cc(C(=O)N2CCN(c3ccccc3)CC2C)c2c(c1)nc(-c1ccncc1)n2C` (configuration not stated): the “activity change, negative = inhibition” value was inactive: 15.6%.
The result for `Cc1ccc(CN2CCOc3ccc(C(C)(O)COc4ccccc4)cc3C2)o1` (configuration not stated) reads inactive: 14%; that for `CC(C)CN1CC[C@@]2(CCCN(C(=O)c3cnccn3)C2)C1`, inactive: 4.51%; that for `CSc1ccc(-c2ccc(C(=O)NCC3CCCO3)c(N3CCC(O)CC3)n2)cc1` (configuration not stated), inactive: 21.5%.
The result for `COc1cccc(Nc2ncc3nc(-c4ccccc4)c(=O)n(C4CC4)c3n2)c1` reads inactive: -1.83%.
Consider `O=c1c(O)c(-c2ccc(O)c(O)c2)oc2c(OC3OC(CO)C(O)C(O)C3O)c(O)cc(O)c12` (configuration not stated), for which the “activity change, negative = inhibition” value was inactive: -23.5%.
Take `COc1ccc(NC(=O)c2ccc(-c3ccc(-c4noc(C)n4)cc3C)cc2)cc1OCCN(C)C`: the activity change, negative = inhibition entry was “inactive”.
Turning to `N#Cc1ccc(CN2CC[C@@]3(CCCN(C(=O)c4cccc(F)c4)C3)C2)cc1`, the “activity change, negative = inhibition” value is inactive: -1.06%.
The result for `FC(F)(F)c1ccccc1-n1ccnc1` reads “inactive”.
Turning to `CC1CN(CC(=O)NCc2ccc3c(c2)OCO3)Cc2cc(Cl)ccc2O1` (configuration not stated), the “activity change, negative = inhibition” value was inactive: 14.4%.
Regarding `COc1ccc2[nH]cc(CCNc3nc(-c4ccoc4)nc4ccccc34)c2c1`, the “activity change, negative = inhibition” value is inactive: 6.63%.
Under `COc1ccc(N2C(=O)[C@@H]3C[C@H]2CN3Cc2cccn2-c2ccccn2)cc1Cl` stands inactive: 13.8%.
In the case of `Cc1cc2ccc(=O)oc2cc1OC[C@@H](O)C(C)(C)O`, the “activity change, negative = inhibition” value is inactive: -3.76%.
For the compound `CCCCOC(=O)NS(=O)(=O)c1sc(CC(C)C)cc1-c1ccc(Cn2c(CC)nc3c(C)cc(C)nc32)cc1`, the “activity change, negative = inhibition” value was inactive: -10.5% [at 75.8 µM].
With `O=C(Cc1cccs1)N[C@@H]1C(=O)N2C(C(=O)[O-])=C(C[n+]3ccccc3)CS[C@H]12`, the “activity change, negative = inhibition” value is inactive: -26.4%.
As to `Cn1nccc1C(=O)NCC1CCC2(CCN(Cc3ccc(-c4ccc(Cl)cc4)o3)CC2)O1` (configuration not stated), the “activity change, negative = inhibition” value is inactive: 1.75%.
The result for `CC(C)=O` reads inactive: 0.564%; that for `Cn1cc(CN2CCOc3ccc(C(O)C4CCCCC4)cc3C2)cn1` (configuration not stated), inactive: -4%; that for `COC(=O)[C@@H]1CCCN1Cc1ccc2c(c1)CN(Cc1cccn1-c1ccc(Cl)cn1)CCO2`, inactive: -0.331%.
On to `O=c1c(-c2ccc(Cl)cc2)nc2cncnc2n1Cc1ccccc1Cl`, for which the “activity change, negative = inhibition” value is inactive: -0.603%.
As to `CO/N=C(\C(=O)N[C@@H]1C(=O)N2C(C(=O)O)=C(CSc3nc(=O)c(O)nn3C)CS[C@H]12)c1csc(N)n1`, the “activity change, negative = inhibition” value is inactive: 20.9%.
Under `NC(=O)CC[C@@H](N)C(=O)O` stands inactive: 14.8%; under `Cc1cc(C(=O)NCC2CCC3(CCN(Cc4ccc5ccccc5c4)CC3)O2)n(C)n1` (configuration not stated), inactive: -6.61%.
As for `CN(C)c1ccc(C=O)c(O)c1`, the “activity change, negative = inhibition” value was inactive: -22%.
As for `Oc1ccccc1O`, the “activity change, negative = inhibition” value is inactive: 10.3% [at 75.8 µM].
Regarding `N[C@@H](C(=O)O)c1ccc(P(=O)(O)O)cc1`, the “activity change, negative = inhibition” value was inactive: -3.59%.
Regarding `O=C(NCC1CCC2(CCN(Cc3cccc4cccnc34)CC2)O1)c1ccco1` (configuration not stated), the “activity change, negative = inhibition” value was inactive: -3.34%.
The result for `O=C1CCN(Cc2ccccc2)CCN1CCOc1ccccc1` reads inactive: 2.55%; that for `C[C@@H]1CCC2[C@](C)(CO)[C@@H](O)CC[C@]2(C)[C@]12CCC(CO)(CCO)O2` (some centres not stated), inactive: 28.8%.
As for `Cc1cccc(CNC(=O)c2cnn(-c3ncc(C)c(-c4cccs4)n3)c2C2CC2)n1`, the “activity change, negative = inhibition” value is inactive: 14.4%.
Consider `COc1ncc2nc(C)c(=O)n(CCC#N)c2n1`, for which the “activity change, negative = inhibition” value was inactive: 22.9%.
The result for `Cc1cc2c(c(-c3nc4ccccc4s3)c1)OC(CNC(=O)CCc1cccnc1)C2` (configuration not stated) reads inactive: 6.96%; that for `CCNc1ncc2nc(CCc3ccccc3)c(=O)n(C[C@H]3CCCO3)c2n1`, inactive: 9.25%; that for `CCOc1cc(-c2nccc3cc(OC)c(OC)cc23)cc(OCC)c1OCC`, inactive: -5.14%.
For the compound `Cc1ccc2c(Br)cc(Br)c(O)c2n1`, the “activity change, negative = inhibition” value was inactive: 6.59%.
The result for `COc1ccccc1CCn1c(=O)c(-c2ccc(F)cc2)nc2cncnc21` reads inactive: 9.44%.
`CC(CC=O)CCCC(C)(C)O` (configuration not stated): the “activity change, negative = inhibition” value was inactive: 18.9%.
As for `COc1cc(-c2nc(C)cnc2C)cc2c1OCCN(C(=O)Cn1nc(-c3ccccc3)c3ccccc3c1=O)C2`, the “activity change, negative = inhibition” value was inactive: 16.9%.
The result for `CCNc1ncc2nc(-c3ccccc3)c(=O)n(CCOC)c2n1` reads inactive: 3.09%; that for `COCC(=O)N1CCC2(CCN(Cc3ccc(C#N)cc3)CC2)CC1`, inactive: 10.3%.
Under `Cc1ccc(S(=O)(=O)NC(=O)NC2CCCC2)cc1` stands inactive: 14.1%.
The result for `O=C(N[C@@H](Cc1ccccc1)C(=O)CCl)OCc1ccccc1` reads inactive: 0% [at 75.8 µM]; that for `COc1ccc2c(c1)[C@]1(C)CCC(=O)C[C@H]1CC2`, inactive: -10.2%; that for `COc1ccccc1/C=C\C(=O)OC[C@@H]1CCCN2CCCC[C@H]12`, inactive: 3.69%.
For `Cc1cc2c(cc1Cl)N(C(=O)Nc1ccc(Oc3cccnc3C)nc1)CC2`, the “activity change, negative = inhibition” value is inactive: -0.589% [at 75.8 µM].
For `O=C(c1cccnc1)C1CCCN(Cc2ccc3c(c2)CN(C(=O)c2ccc4[nH]ccc4c2)CCO3)C1` (configuration not stated), the “activity change, negative = inhibition” value is inactive: 9.24%.
As to `Cc1scc2c1N(C(=O)CN1CCN(C)CC1)c1ccccc1NC2=O`, the activity change, negative = inhibition entry was “inactive”.
For the compound `O=c1c(O)c(-c2ccc(O)c(O)c2)oc2c(OC[C@@H]3O[C@@H](O)[C@@H](O)[C@H](O)[C@H]3O)c(O)cc(O)c12`, the “activity change, negative = inhibition” value was inactive: -6.8%.
For `COCCNc1ncnc2ccc(-c3ccccc3C)cc12`, the “activity change, negative = inhibition” value was inactive: 20.3%.
`c1ccc(C2CN3CCSC3=N2)cc1` (configuration not stated): the activity change, negative = inhibition result was “inactive”.
On to `COc1cccc(-c2cc(=O)c3cc(O)ccc3o2)c1`, for which the “activity change, negative = inhibition” value is inactive: 16.5%.
Turning to `COC(=O)c1c(OCc2cccnc2)cc(=O)n2c1CCN(C(=O)c1ccc(OC)c(F)c1)CC2`, the “activity change, negative = inhibition” value was inactive: 1.96%.
Turning to `COCC(=O)Nc1cc(C(=O)N2CCCC(C(C)=O)C2)cc2nc(-c3ccccc3)n(C)c12` (configuration not stated), the “activity change, negative = inhibition” value was inactive: -5.97%.
Turning to `COc1cc2cc3c4cc(OC)c(OC)cc4cc[n+]3c(C)c2cc1OC`, the “activity change, negative = inhibition” value was inactive: -7.16%.
Turning to `Cc1c2oc3c(C)ccc(C(=O)NC4C(=O)NC(C(C)C)C(=O)N5CCCC5C(=O)N(C)CC(=O)N(C)C(C(C)C)C(=O)OC4C)c3nc-2c(C(=O)NC2C(=O)NC(C(C)C)C(=O)N3CCCC3C(=O)N(C)CC(=O)N(C)C(C(C)C)C(=O)OC2C)c(N)c1=O` (configuration not stated) (I: TVP[Sar][NMeV] / II: TVP[Sar][NMeV]; ester I:1-I:C, II:1-II:C; linker I:N-II:N via Actinocin(9to1); configuration not given here), the “activity change, negative = inhibition” value is inactive: 1.27% [at 75.8 µM].
The result for `CC(COc1ccc(/C=C/c2ccccc2)cc1)[N+](C)(C)C` (configuration not stated) reads inactive: 0.993% [at 75.8 µM].
For the compound `O=c1cnc2cncnc2n1Cc1ccccc1Cl`, the “activity change, negative = inhibition” value is inactive: -10.8%.
For `CN(C)c1ccc(/C=C/N2C=CCc3c2ccc2ccccc32)cc1`, the “activity change, negative = inhibition” value was inactive: -21.6%.
In the case of `O=c1c(-c2cc(F)cc(F)c2)nc2cnc(N3CCNCC3)nc2n1CCc1ccccc1`, the “activity change, negative = inhibition” value was inactive: 0.84%.
Under `C#CCCCCCCCCCCCC(=O)CC(O)COC(C)=O` (configuration not stated) stands inactive: 15.6%; under `COc1ccc(C(=O)N2CCC3(CC2)CN(c2cccc(-c4ccccc4)c2)C3)cc1`, inactive: -6.99%.
As for `C[C@H]1[C@H](C)CC[C@]2(C(=O)O)CC[C@]3(C)C(=CCC4[C@@]5(C)C[C@@H](O)[C@H](O)[C@@](C)(CO)[C@@H]5CC[C@]43C)[C@H]12` (some centres not stated), the “activity change, negative = inhibition” value is inactive: -11.5%.
